Data from the supplement of paper PMC4604168 (melanoma cell lines).
This is one part of the list. Many values rest on one well or one pass, so single values are uncertain.

The compounds below were run on UACC62 (assay: cell count relative to DMSO control; melanoma cells; higher = more viable cells). Settings: library dose: low library concentration; 72 h; first compound 0.4 µM.
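Also: cell number obtained by counting DAPI-stained nuclei in high-throughput microscope images with image analysis software, screen run in 1,536-well plates.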

How did the cell count turn out when `Cn1sc(=O)n(Cc2ccccc2)c1=O` + O=c1cc(-c2cccc3c2Sc2ccccc2S3)oc(N2CCOCC2)c1 [KU55933] (partner dose 1 µM) was run?
The cell count was 83.1%.

How did the cell count turn out when `C[C@@H](N)c1ccc(C(=O)Nc2ccnc3[nH]ccc23)cc1` + COc1cc2c(Oc3ccc4[nH]c(C)cc4c3F)ncnc2cc1OCCCN1CCCC1 [cediranib] (partner dose 0.4 µM) was run?
The cell count was 81.4%.

`C[C@@H](N)c1ccc(C(=O)Nc2ccnc3[nH]ccc23)cc1` + COc1ccc(-c2ccc3c(N4CCOCC4)nc(N4C[C@@H](C)O[C@@H](C)C4)nc3n2)cc1CO [KU0063794] (partner dose 0.02 µM) was tested. Which cell count did it give?
Its cell count is 60.9%.

With `C[C@@H](N)c1ccc(C(=O)Nc2ccnc3[nH]ccc23)cc1` + COC(=O)c1sccc1S(=O)(=O)Nc1ccc(Nc2ccccc2)cc1OC [GSK0660] (partner dose 1 µM) as the compound, how does the cell count read?
Its cell count is 78%.

How did the cell count turn out when `C[C@@H](N)c1ccc(C(=O)Nc2ccnc3[nH]ccc23)cc1` + COc1cc(Nc2ncc(F)c(Nc3ccc4c(n3)NC(=O)C(C)(C)O4)n2)cc(OC)c1OC [Tamatinib] (partner dose 0.4 µM) was run?
The cell count was 68.8%.

How did the cell count turn out when `Cn1sc(=O)n(Cc2ccccc2)c1=O` + CCc1ccc(CCOc2ccc(CC3SC(=O)NC3=O)cc2)nc1 [pioglitazone] (partner dose 2 µM) was run?
Its cell count is 106%.

Which cell count does the source give for `Cn1sc(=O)n(Cc2ccccc2)c1=O` + O=C(O)C(=O)Nc1sc2c(c1C(=O)O)CCNC2 [TCS401] (partner dose 1.66667 µM) here?
Its cell count is 79.8%.

Which cell count does the source give for `CCCCCCCCCCCCCCCCCCOP(=O)([O-])OC1CC[N+](C)(C)CC1` [Perifosine] + O=S(=O)(c1ccccc1)N(CC(F)(F)F)c1ccc(C(O)(C(F)(F)F)C(F)(F)F)cc1 [T0901317] (partner dose 1.4 µM) here?
The cell count was 81.2%.

How did the cell count turn out when `CCCCCCCCCCCCCCCCCCOP(=O)([O-])OC1CC[N+](C)(C)CC1` [Perifosine] + N#Cc1c(O)c2c(-c3ccc(-c4ccccc4O)cc3)csc2[nH]c1=O [A769662] (partner dose 2 µM) was run?
The cell count was 85.4%.

How did the cell count turn out when `C[C@@H](N)c1ccc(C(=O)Nc2ccnc3[nH]ccc23)cc1` + C[C@@H]1CCN(C(=O)CC#N)C[C@@H]1N(C)c1ncnc2[nH]ccc12 [CP690550] (partner dose 1 µM) was run?
Its cell count is 117%.

With `Cn1sc(=O)n(Cc2ccccc2)c1=O` + Oc1nc(-c2ccc(C(F)(F)F)cc2)nc2c1CSCC2 [XAV939] (partner dose 2 µM) as the compound, how does the cell count read?
Its cell count is 85.6%.

For `CCCCCCCCCCCCCCCCCCOP(=O)([O-])OC1CC[N+](C)(C)CC1` [Perifosine] + CC(C)CCN1c2nc(Nc3cc(F)c(O)c(F)c3)ncc2N(C)C(=O)C1C [BID1870] (partner dose 0.2 µM), which cell count is on record?
Its cell count is 81%.

Which cell count does the source give for `Cn1sc(=O)n(Cc2ccccc2)c1=O` + COc1cc2ncnc(Nc3ccc(Oc4ccccc4)cc3)c2cc1OC [SrcI1] (partner dose 2 µM) here?
Its cell count is 93.4%.

For `Cn1sc(=O)n(Cc2ccccc2)c1=O` + COC(=O)c1sccc1S(=O)(=O)Nc1ccc(Nc2ccccc2)cc1OC [GSK0660] (partner dose 1 µM), which cell count is on record?
The cell count was 97%.

How did the cell count turn out when `Cn1sc(=O)n(Cc2ccccc2)c1=O` + CC1(C)NC(=O)N(c2ccc([N+](=O)[O-])c(C(F)(F)F)c2)C1=O [nilutamide] (partner dose 1 µM) was run?
The cell count was 89.5%.

With `Cn1sc(=O)n(Cc2ccccc2)c1=O` + COc1ccc(COc2ccc(Cc3cnc(N)nc3N)cc2OC)cc1 [GW2580] (partner dose 1 µM) as the compound, how does the cell count read?
The cell count was 97.5%.

For `C[C@@H](N)c1ccc(C(=O)Nc2ccnc3[nH]ccc23)cc1` + CCCCCCCCCCCC1=C(O)C(=O)C=C(O)C1=O [Embelin] (partner dose 1.2 µM), which cell count is on record?
Its cell count is 60.4%.

How did the cell count turn out when `CCCCCCCCCCCCCCCCCCOP(=O)([O-])OC1CC[N+](C)(C)CC1` [Perifosine] + O=C(O)c1ccc(-c2c[nH]c3ncc(-c4ccccc4)cc23)cc1C1CCCC1 [GSK650394] (partner dose 0.16 µM) was run?
The cell count was 87.6%.

Which cell count does the source give for `C[C@@H](N)c1ccc(C(=O)Nc2ccnc3[nH]ccc23)cc1` + CO[C@@H]1[C@H](N(C)C(=O)c2ccccc2)C[C@H]2O[C@]1(C)n1c3ccccc3c3c4c(c5c6ccccc6n2c5c31)C(=O)NC4 [Midostaurin] (partner dose 0.08 µM) here?
The cell count was 84.4%.

For `Cn1sc(=O)n(Cc2ccccc2)c1=O` + CN(NC(=O)CC(=O)NN(C)C(=S)c1ccccc1)C(=S)c1ccccc1 [STA4783] (partner dose 0.006 µM), which cell count is on record?
Its cell count is 61.5%.

How did the cell count turn out when `Cn1sc(=O)n(Cc2ccccc2)c1=O` + Oc1cc(-c2nc(-c3ccccc3)[nH]c2-c2ccncc2)ccc1Cl [L779450] (partner dose 0.2 µM) was run?
The cell count was 58.4%.

`CCCCCCCCCCCCCCCCCCOP(=O)([O-])OC1CC[N+](C)(C)CC1` [Perifosine] + Cc1cc([N+](=O)[O-])ccc1NS(=O)(=O)c1cc(Cl)ccc1Cl [FH535] (partner dose 1 µM) was tested. Which cell count did it give?
Its cell count is 73.4%.

How did the cell count turn out when `C[C@@H](N)c1ccc(C(=O)Nc2ccnc3[nH]ccc23)cc1` + O=C(O)C(=O)Nc1sc2c(c1C(=O)O)CCNC2 [TCS401] (partner dose 1.66667 µM) was run?
The cell count was 85.2%.

How did the cell count turn out when `C[C@@H](N)c1ccc(C(=O)Nc2ccnc3[nH]ccc23)cc1` + COc1ccc(COc2ccc(Cc3cnc(N)nc3N)cc2OC)cc1 [GW2580] (partner dose 1 µM) was run?
Its cell count is 79.3%.

For `CCCCCCCCCCCCCCCCCCOP(=O)([O-])OC1CC[N+](C)(C)CC1` [Perifosine] + OCCn1cc(-c2cnc3nnn(Cc4ccc5ncccc5c4)c3n2)cn1 [PF04217903] (partner dose 1 µM), which cell count is on record?
Its cell count is 83.6%.

With `C[C@@H](N)c1ccc(C(=O)Nc2ccnc3[nH]ccc23)cc1` + CN(C)S(=O)(=O)c1ccc2c(c1)/C(=C/c1cc3c([nH]1)CCCC3)C(=O)N2 [SU6656] (partner dose 0.4 µM) as the compound, how does the cell count read?
Its cell count is 69.2%.

Which cell count does the source give for `Cn1sc(=O)n(Cc2ccccc2)c1=O` + Cc1cc([N+](=O)[O-])ccc1NS(=O)(=O)c1cc(Cl)ccc1Cl [FH535] (partner dose 1 µM) here?
The cell count was 89%.

For `Cn1sc(=O)n(Cc2ccccc2)c1=O` + CC(C)CCN1c2nc(Nc3cc(F)c(O)c(F)c3)ncc2N(C)C(=O)C1C [BID1870] (partner dose 0.2 µM), which cell count is on record?
The cell count was 87.6%.

With `C[C@@H](N)c1ccc(C(=O)Nc2ccnc3[nH]ccc23)cc1` + c1cc(-c2cnn3cc(-c4ccc(OCCN5CCCCC5)cc4)cnc23)ccn1 [Dorsomorphin] (partner dose 0.4 µM) as the compound, how does the cell count read?
Its cell count is 74.5%.

Which cell count does the source give for `CCCCCCCCCCCCCCCCCCOP(=O)([O-])OC1CC[N+](C)(C)CC1` [Perifosine] + CC(C)(C)c1cnc(CSc2cnc(NC(=O)C3CCNCC3)s2)o1 [SNS-032] (partner dose 0.01 µM) here?
Its cell count is 87.1%.

For `C[C@@H](N)c1ccc(C(=O)Nc2ccnc3[nH]ccc23)cc1` + O=c1cc(-c2cccc3c2Sc2ccccc2S3)oc(N2CCOCC2)c1 [KU55933] (partner dose 1 µM), which cell count is on record?
The cell count was 97.3%.

With `CCCCCCCCCCCCCCCCCCOP(=O)([O-])OC1CC[N+](C)(C)CC1` [Perifosine] + C[C@@H]1CCN(C(=O)CC#N)C[C@@H]1N(C)c1ncnc2[nH]ccc12 [CP690550] (partner dose 1 µM) as the compound, how does the cell count read?
The cell count was 87.9%.
